Publication PMC4336329 (PLoS ONE, 2015)
Screen size: about 310,000 compounds; about 14,000 (4.5%) showed an effect of 50% or more. The effect is printed as a negative number. Some of the results follow.

target: human ether-à-go-go-related gene (hERG) potassium channel (human, UniProt Q12809); experiment: primary screen, population patch clamp on CHO cells stably expressing hERG
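Also: peak tail current of the secondary pulse compared with the same well before compound.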

Sequence of human ether-à-go-go-related gene (hERG) potassium channel (Q12809 whole entry, looked up): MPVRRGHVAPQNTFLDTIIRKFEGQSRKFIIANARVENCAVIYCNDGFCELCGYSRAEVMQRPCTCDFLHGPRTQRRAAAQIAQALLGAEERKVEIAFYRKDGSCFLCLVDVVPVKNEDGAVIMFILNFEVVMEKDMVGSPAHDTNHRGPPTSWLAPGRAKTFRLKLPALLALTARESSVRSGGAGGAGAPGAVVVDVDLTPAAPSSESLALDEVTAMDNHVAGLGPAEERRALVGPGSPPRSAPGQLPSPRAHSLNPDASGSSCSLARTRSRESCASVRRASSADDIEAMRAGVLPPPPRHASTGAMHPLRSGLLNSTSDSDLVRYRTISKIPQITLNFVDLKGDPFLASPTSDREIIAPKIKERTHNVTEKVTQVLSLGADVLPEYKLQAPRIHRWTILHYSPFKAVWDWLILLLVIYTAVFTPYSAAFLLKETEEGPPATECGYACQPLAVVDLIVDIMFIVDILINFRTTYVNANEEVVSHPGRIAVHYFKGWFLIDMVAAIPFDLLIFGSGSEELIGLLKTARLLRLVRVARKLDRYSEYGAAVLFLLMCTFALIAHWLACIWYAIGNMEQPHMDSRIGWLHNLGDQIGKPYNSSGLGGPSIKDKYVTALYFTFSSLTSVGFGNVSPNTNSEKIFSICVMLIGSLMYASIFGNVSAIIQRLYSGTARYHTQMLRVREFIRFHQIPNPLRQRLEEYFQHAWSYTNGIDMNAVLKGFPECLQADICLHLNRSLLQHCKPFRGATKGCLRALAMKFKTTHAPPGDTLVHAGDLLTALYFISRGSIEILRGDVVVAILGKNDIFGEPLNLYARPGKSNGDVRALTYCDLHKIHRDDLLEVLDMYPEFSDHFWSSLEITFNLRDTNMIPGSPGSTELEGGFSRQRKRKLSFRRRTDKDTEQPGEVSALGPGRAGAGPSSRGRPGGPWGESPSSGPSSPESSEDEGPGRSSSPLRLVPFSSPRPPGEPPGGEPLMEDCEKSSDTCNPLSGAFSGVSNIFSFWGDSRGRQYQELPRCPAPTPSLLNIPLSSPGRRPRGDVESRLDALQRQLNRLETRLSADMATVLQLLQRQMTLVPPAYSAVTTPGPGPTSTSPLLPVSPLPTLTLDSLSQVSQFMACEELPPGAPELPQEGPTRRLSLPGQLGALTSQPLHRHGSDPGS

SMILES	hERG current change (%, negative = inhibition) at 10uM
COc1ccc(N(C(=O)c2snc(C(N)=O)c2N)C(C(=O)NCC2CCCO2)c2ccc3ncccc3c2)cc1OC (stereo not shown)	9.02%
Cc1cc([N+](=O)[O-])nn1CC(=O)NCc1nc2ccccc2[nH]1	6.92%
O=C(NCc1ccccc1)c1ccccc1CO	0.57%
Cc1ccc(CN2CC(C(=O)NCC(=O)Nc3c(C)cccc3C)CC2=O)cc1 (stereo not shown)	3.92%
OCC[C@@H]1C[C@H](O)[C@@H](O)[C@@]2(Cc3ccccc3O2)O1	19.2%
COc1ccccc1CCNC1CCCCCC1	2.84%
CN(C)/C=C/C(=O)c1ccc(S(=O)(=O)c2ccccc2)cc1	15.2%
CCOC(=O)N1CCN(C(=O)CN(C2CCCCC2)S(=O)(=O)c2ccc(F)cc2)CC1	-25.3%
Cc1ccc(CNc2nc(C)nc3sc4c(c23)CCC4)cc1	-4.22%
Cc1nc2ccccc2c2nc(N)nn12	0.19%
O=C(Nc1cccc(C(F)(F)F)c1)c1cc2ncc(Br)cn2n1	4.84%
COc1ccccc1NC(=S)NNC(=O)c1c(Cl)c(C)nn1C	32.8%
COc1cc(OC)c(/C=N/N2CCN(c3ccccc3OC)CC2)c(OC)c1	2.49%
CCOC(=O)C1=NN(c2ccccc2)C2=NC(C)=C(C(=O)OC)C(c3ccc(C)cc3)N12 (stereo not shown)	-5.08%
COC(=O)c1ccccc1-n1c(CCC(=O)O)ccc1-c1ccc(F)cc1	1.42%
COc1ccc(N2CCN(C3CCCN(Cc4ccc(F)cc4)C3)CC2)cc1 (stereo not shown)	-32.8%
COc1ccc2nc3ccccc3nc2c1NC(=O)c1ccccc1Cl	-5.99%
CCC1CCCCN1C(=O)c1ccc(OC2CCN(C(=O)COC)CC2)cc1 (stereo not shown)	6.08%
CCN1CCCC1CNc1ccc(S(C)(=O)=O)cc1[N+](=O)[O-] (stereo not shown)	-47.6%
O=C(COc1ccc(Cl)cc1)Nc1cccc(S(=O)(=O)NC2=NCCCCC2)c1	-42.1%

SMILES	hERG current change (%, negative = inhibition) at 10uM
Cc1ccc(N(CC(O)CN2CCOCC2)S(=O)(=O)c2ccc([N+](=O)[O-])cc2)cc1 (stereo not shown)	-65.2%
Cc1cc(C(=O)CSc2ncnc3ccccc23)c(C)n1C1CC1	10.1%
O=C(CCCCCN1C(=O)c2ccccc2C1=O)Nc1cccc(O)c1	-0.283%
NS(=O)(=O)c1ccc(CCNC(=O)C2Cc3ccccc3CN2C(=O)c2ccco2)cc1 (stereo not shown)	9.39%
Cc1noc(-c2ccc(C(F)(F)F)cc2)c1NC(=O)Nc1ccc(Cl)cc1	22.3%
CNNC(=S)NC1CC2CC1C1C=CCC21 (stereo not shown)	-5.34%
CCn1ccnc1CN1CCCC(C(=O)c2ccc(SC)cc2)C1 (stereo not shown)	-58.3%
C[N+](C)(C)CC/C=C1/c2ccccc2CSc2ccccc21.[I-]	9.59%
CCc1cc(=O)oc2cc(OCc3nn[nH]n3)ccc12	3.52%
CCOC(=O)c1ccc(NC(=O)CC2S/C(=N/N=C3/NC(=O)CS3)NC2=O)cc1 (stereo not shown)	15.1%
COc1cc(C(=S)N2CCCC2)ccc1OS(=O)(=O)c1ccc(NC(C)=O)cc1	11.3%
COC(=O)C1=NN(c2ccc(OC)cc2)C2C(=O)N(c3ccccc3OC)C(=O)C12 (stereo not shown)	10.7%
C=CCNC(=O)CN1C(=O)NC(C)(c2ccc(OC)cc2)C1=O (stereo not shown)	-14.2%
Cc1ccc(S(=O)(=O)CCC(=O)Nc2sccc2C#N)cc1	-11.4%
CCCCCCc1cc2cc(-c3nnc(-c4cc(OC)c(OC)c(OC)c4)o3)c(=O)oc2cc1O	4.47%
COc1ccc(-c2c(C)nn3c(N4CCCCCC4)cc(C)nc23)cc1OC	7.94%
S=c1nc(-c2ccccc2)n(CCCN2CCOCC2)c2c1CCCC2	-13.7%
Clc1ccc(OCCn2cnc(Cl)c2Cl)cc1	-2.74%
CCCCNC(=S)Nc1cccc(C(C)=O)c1	9.06%
S=C(NCCc1ccccc1)N1CCCC1	9.47%

SMILES	hERG current change (%, negative = inhibition) at 10uM
O=C(/C=C/c1ccccc1[N+](=O)[O-])N1CCN(c2ccc(F)cc2)CC1	-56.5%
O=C1OCCC1Sc1nnnn1-c1ccccc1 (stereo not shown)	-5.14%
S=C(NC1CCCCC1)N1CCOCC1	7.05%
c1ccc2c(c1)ncn2Cc1nnc2sc(-c3ccncc3)nn12	-25.4%
CCN(CC)S(=O)(=O)c1ccc(S(=O)(=O)N2CCCC2C(=O)O)cc1 (stereo not shown)	-0.323%
O=S(=O)(NCc1ccccc1Cl)c1cnc[nH]1	21.4%
CC(C)[C@H](NC(=O)NCCC1=CCCCC1)C(=O)O	10.6%
Cn1c(=O)[nH]c(=O)c2c1nc(N1CCOCC1)n2CCN1CCOCC1	30.2%
O=C(Nc1nccs1)c1cc(S(=O)(=O)N2CCOCC2)ccc1Cl	-12.9%
COc1cccc(NC(=O)Nn2cnnc2)c1	24.1%
CC(C(=O)N1CC2(C)CC1CC(C)(C)C2)N1C(=O)c2ccccc2C1=O (stereo not shown)	-12.6%
Cc1cc(Nc2ccc(F)cc2)n2nc(C)nc2n1	-28.7%
O=C1CCCC(=O)N1c1ccc(N2CCN(c3ccccc3)CC2)c([N+](=O)[O-])c1	14.2%
COc1ccccc1N1CCN(C(=O)/C=C/c2ccc3c(c2)OCO3)CC1	-10.5%
CCN(CC)C(=O)c1c([N+](=O)[O-])c(C(C)(C)C)nn1C	17.3%
CCc1ccc(/C=N/NC(=O)c2ccccn2)cc1	-5.14%
CC(=O)c1ccc(Oc2cc(C)nc(N3CCOCC3)n2)cc1	-13.3%
O=C(N1CCN(CCO)CC1)N1c2ccccc2C=Cc2ccccc21	13.7%
